Data: paper PMC4336329 (PLoS ONE, 2015)
In all, about 310,000 compounds went through this assay and about 14,000 (4.5%) showed an effect of 50% or more. The effect is printed as a negative number. This is one part of the list.

Biological target: human ether-à-go-go-related gene (hERG) potassium channel (human, UniProt Q12809)
Assay: primary screen, population patch clamp on CHO cells stably expressing hERG
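Further: peak tail current of the secondary pulse compared with the same well before compound.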

human ether-à-go-go-related gene (hERG) potassium channel, sequence (Q12809 whole entry, looked up): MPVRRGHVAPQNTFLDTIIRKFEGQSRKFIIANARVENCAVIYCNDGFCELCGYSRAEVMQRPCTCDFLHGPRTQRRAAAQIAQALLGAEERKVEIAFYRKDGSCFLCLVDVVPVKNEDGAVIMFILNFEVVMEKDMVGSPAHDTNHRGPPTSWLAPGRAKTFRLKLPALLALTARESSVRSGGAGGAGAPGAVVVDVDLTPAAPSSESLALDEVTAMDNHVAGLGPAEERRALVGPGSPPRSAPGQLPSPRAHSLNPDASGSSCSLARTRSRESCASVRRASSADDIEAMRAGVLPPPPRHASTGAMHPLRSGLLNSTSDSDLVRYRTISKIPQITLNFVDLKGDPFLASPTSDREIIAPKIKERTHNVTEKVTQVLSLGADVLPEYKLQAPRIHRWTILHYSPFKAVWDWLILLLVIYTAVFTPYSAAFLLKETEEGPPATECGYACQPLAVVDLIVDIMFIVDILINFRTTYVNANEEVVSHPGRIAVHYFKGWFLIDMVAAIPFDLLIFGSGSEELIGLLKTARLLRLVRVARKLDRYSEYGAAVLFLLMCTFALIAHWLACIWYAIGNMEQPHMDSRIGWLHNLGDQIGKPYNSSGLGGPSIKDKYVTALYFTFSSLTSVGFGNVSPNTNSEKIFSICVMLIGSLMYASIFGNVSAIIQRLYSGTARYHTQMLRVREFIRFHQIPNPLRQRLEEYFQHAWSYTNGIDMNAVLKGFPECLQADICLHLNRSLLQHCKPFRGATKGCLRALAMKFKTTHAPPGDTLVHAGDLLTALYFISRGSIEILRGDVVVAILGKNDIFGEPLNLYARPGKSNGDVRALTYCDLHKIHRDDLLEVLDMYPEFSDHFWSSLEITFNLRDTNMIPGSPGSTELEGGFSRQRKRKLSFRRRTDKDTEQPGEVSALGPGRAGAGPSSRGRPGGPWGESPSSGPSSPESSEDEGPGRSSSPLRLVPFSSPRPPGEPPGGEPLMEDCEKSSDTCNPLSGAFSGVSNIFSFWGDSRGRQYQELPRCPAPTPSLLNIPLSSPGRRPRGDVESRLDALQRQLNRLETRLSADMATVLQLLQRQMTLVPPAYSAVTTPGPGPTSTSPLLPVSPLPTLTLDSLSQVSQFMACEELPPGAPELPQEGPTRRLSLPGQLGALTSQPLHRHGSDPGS

SMILES | hERG current change (%, negative = inhibition) at 10uM [%]
N/C(=N\OC(=O)c1ccc(Cl)cc1Cl)c1ccccn1 | -4.07
COC(=O)c1ccccc1S(=O)(=O)NCc1nc2nc(C)cc(C)n2n1 | 7.78
Cc1ccc(-n2nc(C)c3c(C)onc3c2=O)cc1 | 21.6
COc1ccc(N2CCOCC2)c(NC(=O)c2cc3ccccc3o2)c1 | 11.6
CCn1c(C)cc2c(c1=O)C(c1ccccc1Br)C(C#N)=C(N)O2 (centres unmarked) | 0.963
Cc1cc(C)c(C(=O)Nc2cccc(F)c2)c(Cl)n1 | -21.9
COC(=O)[C@H](C)NC(=O)Nc1cc(Cl)ccc1C | 14.3
O=C(CCC(=O)OCc1ccc(C(=O)Oc2ccccc2)cc1)Nc1cccc2ccccc12 | -4.75
O=S(=O)(NCCC1CC1(Cl)Cl)c1ccc(Cl)cc1 (centres unmarked) | 1.44
CCN(CCCNC(=O)CNC(=O)c1nn(-c2ccc(OC)cc2OC)c(=O)c2ccccc12)c1cccc(C)c1 | -20
Cc1cccc(-n2c(CNC(=O)c3cccc([N+](=O)[O-])c3C)n[nH]c2=S)c1 | 27.4
CC12CC[C@H]3[C@@H](CCC4(O)C[C@H](O)CCC34/C=N/NC(=O)c3ccccc3Cl)C1(O)CCC2C1=CC(=O)OC1 (some centres unmarked) | 9.69
CCCCOC(=O)CSc1nnc(N)s1 | -3.51
Nc1ccc(-n2c(N)c(C(=O)NCc3ccc4c(c3)OCO4)c3nc4ccccc4nc32)cc1 | 5.95
CCCC(=O)Nc1nnc(CCc2ccccc2)s1.Cl | -1.14
COc1ccccc1CNC(=O)c1ccc(NS(=O)(=O)c2cccs2)cc1 | -18.6
O=Cc1ccc(OCCOc2ccc([N+](=O)[O-])cc2)cc1 | 6.17
Cc1ccc(C)c(C(=O)CCC(=O)NCc2ccc(Cl)cc2)c1 | -7.22
CSCCC(NC(=O)COc1ccccc1)C(=O)N1CC(C)CC(C)C1 (centres unmarked) | -41.4
COc1ccc(N2CCN(CCNC(=O)C3CC(=O)N(C4CCCC4)C3)CC2)cc1 (centres unmarked) | -2.62
CC1(C)NC(=O)N(CC(=O)N2CCN(c3cccc(Cl)c3)CC2)C1=O | -6.67
CCn1nc(NS(=O)(=O)c2ccc(NC(C)=O)cc2)c2cc3ccccc3nc21 | 15.1

SMILES | hERG current change (%, negative = inhibition) at 10uM [%]
Cc1ccc(/C(N)=N/OC(=O)CN(C)S(=O)(=O)c2ccc(C)cc2)cc1 | -3
CN(C(=O)COC(=O)/C=C/c1ccc2ccccc2n1)C1CCS(=O)(=O)C1 (centres unmarked) | 12.7
Cc1c(Cl)cc(-n2cnnn2)cc1[N+](=O)[O-] | 10.3
O=c1[nH]c(=O)n(Cc2ccco2)c(O)c1C=NCCN1CCOCC1 | 12.9
O=c1cc(-c2ccccc2)c2ccc(O)cc2o1 | -24.4
CCOc1ccccc1N=Nc1c(C)[nH]n(C(N)=S)c1=O | 27.8
CCOCCCNC(=O)c1cc2c(=O)[nH]c3ccccc3c2s1 | 11.8
CCCCCn1c(=O)c2ccccc2n2c(CCl)nnc12 | -42.6
Cc1ccc(NC(=O)c2cc(-c3ccco3)on2)cc1C | 26.5
CCOC(=O)c1cc2c(ccn2C)n1CC(=O)N1C(C)CCCC1C (centres unmarked) | 20.5
CC1CCN(c2ccccc2NC(=O)c2ccc(N3CCOCC3)c([N+](=O)[O-])c2)CC1 | -12.6
CCOC(=O)C1CCN(S(=O)(=O)c2ccc(OC)c(Cl)c2Cl)CC1 | -1.07
O=C(COC(=O)CCC1CCCC1)Nc1ccc(F)cc1Cl | 0.603
CN1C(=O)N(C)C2(c3ccccc3)NC(=O)NC12c1ccccc1 (centres unmarked) | 18.9
C/C(=N\NC(=S)NCc1ccccc1)c1ccc(C)o1 | 2.84
COc1ccc(NC(=O)C2CC(=O)NC(Nc3cccc(C)c3)=N2)cc1 (centres unmarked) | 16.1
COCc1ccc(CN2CCC(n3nccc3NC(=O)CCCc3ccccc3)CC2)o1 | 21.5
COc1ccc(CN=CC2=C(O)CNC2=O)cc1 | 9.96
CCc1ccc(NC(=O)C(C)OC(=O)c2ccc(-n3cnnn3)cc2)cc1 (centres unmarked) | -23.2
O=C1C=C(NCc2ccncc2)CC(c2ccccc2)C1 (centres unmarked) | -70.7
COc1ccc(NC(=O)Nc2cccc3ccccc23)c(OC)c1 | 26.3
CCOC(=O)C1=C(COC(=O)CCOc2cccc(C)c2)NC(=O)NC1C (centres unmarked) | -21.7

SMILES | hERG current change (%, negative = inhibition) at 10uM [%]
Cl.NC(=NCc1ccccc1)c1cccc([N+](=O)[O-])c1 | -20
COc1cccc(-c2ccc(C#N)c(OC(=O)c3ccc(Cl)cc3)n2)c1 | -15
Cc1ccc2c(c1)N(C(=O)CCC(=O)N1CCC(C(N)=O)CC1)CC(C)O2 (centres unmarked) | -2.42
COc1ccccc1NC(=O)CN(C)S(=O)(=O)c1cccc2cccnc12 | 6.63
O=C(Nc1ccccc1)c1ccccc1CSc1ccccc1 | 4.39
O=S(=O)(O)CCN1CCOCC1 | 6.65
Cc1ccc(-c2cn(-c3ccccc3)c(SCC(=O)NC3CCS(=O)(=O)C3)n2)cc1C (centres unmarked) | -2.39
CN(CC(=O)Nc1ccccc1Cl)C(=O)COC(=O)Cc1c(F)cccc1Cl | 5.4
N=c1c2c(-c3ccccc3)c(-c3ccccc3)n(Cc3ccco3)c2ncn1CCN1CCOCC1 | -75.9
CC(CN1CCC(n2nccc2NC(=O)c2ccccc2Cl)CC1)c1ccccc1 (centres unmarked) | -68.9
CN(Cc1cc2ccccc2[nH]c1=O)C(=O)COc1ccccc1 | -8.32
O=c1c(C=NCCN2CCNCC2)c(-c2ccccc2)[nH]n1-c1ccc([N+](=O)[O-])cc1 | -66.4
CCCOC(=O)C1C2c3ccccc3C(c3ccccc32)C1C(=O)O (centres unmarked) | 17.6
C#CC(C)(C)NC(=O)c1cnc(-c2ccccc2)nc1-c1ccccc1 | 9.05
O=C1CSC(c2nn(-c3ccccc3)cc2-c2cc3ccccc3oc2=O)N1Cc1ccco1 (centres unmarked) | 4.2
COc1ccc(C=NCC2COc3ccccc3O2)cc1OC.Cl (centres unmarked) | 1.59
CCc1ccccc1NC(=O)c1ccc(NCCc2ccccc2)c([N+](=O)[O-])c1 | 6.44
CC(C)C[C@H](NC(=O)[C@@H](Cc1ccccc1)n1c(=O)[nH]c2ccccc2c1=O)C(=O)N[C@@H](Cc1ccccc1)C(=O)O | -1.24
Cc1nc(C)c(CCNC(=O)c2ccc(C(F)(F)F)cc2)s1 | -6.51
Cc1ccc(C2Nc3ccccc3NC3=C2C(=O)OC(C)C3)cc1 (centres unmarked) | -4.84
Cc1ccc(S(=O)(=O)NC2=C(N3CCN(Cc4ccccc4)CC3)C(=O)c3ccccc3C2=O)cc1 | -16.5
CCOc1cc(S(=O)(=O)n2ccnc2)ccc1Br | 14.2

SMILES | hERG current change (%, negative = inhibition) at 10uM [%]
COC(=O)CSc1nc2cc(OC)ccc2cc1C#N | 5.12
CNC(=O)COc1coc(CN2CCN(c3ccccc3)CC2)cc1=O | 7.12
COc1ccc(OC)c(S(=O)(=O)N2CCC(C(=O)NCCc3ccccc3)CC2)c1 | -7.28
Cc1c(C)c2ccc(OCC(=O)N3CCN(c4ccccc4)CC3)cc2oc1=O | -36.1
CC(N)=Nc1ccc([N+](=O)[O-])cc1 | 16.9
Cc1ccc([C@@H]2[C@@H]3C(=O)N(c4ccccc4)C(=O)[C@@H]3[C@]3(C)C(=O)N(Cc4ccccn4)CC(=O)N23)o1 | 7.21
CCOc1ccc(NC(=S)NC(=O)c2cncc(Br)c2)cc1 | 10.1
COc1cc(O)c(C(CC(=O)N2CCN(c3ccccc3)CC2)c2ccc(N(C)C)cc2)c(OC)c1 (centres unmarked) | 13.7
O=C(O)c1ccccc1N=Nc1c(O)[nH]c2ccc([N+](=O)[O-])cc12 | 6.84
COc1cc(NS(=O)(=O)c2ccc(NC(=O)c3cccs3)cc2)nc(OC)n1 | 10.3
COc1ccc(Br)cc1-c1nc2c(c(=O)[nH]c(=O)n2Cc2ccccc2)n1C | 5.42
Cc1ccc(OCCN2CCN(C)CC2)c([N+](=O)[O-])c1.O=C(O)C(=O)O | 6
Cn1cc(S(=O)(=O)NC2CCCCC2)c(=O)n(C)c1=O | -10.1
COc1ccc(C2NCc3ccc4c(c3-n3cccc32)OCO4)cc1O.Cl (centres unmarked) | -6.08
O=C(Nc1ccc2nc(-c3cccnc3)[nH]c2c1)c1ccco1 | 5.88
NC(=O)c1c(NC(=O)CSc2nnc(Cc3ccccc3)n2Cc2ccco2)sc2c1CCC2 | -12.6
OC(COc1ccc2cc(Br)ccc2c1)CN1CCOCC1 (centres unmarked) | -48.4
CCOC(=O)N1CCN(C(=O)CSc2ccc(-c3cccc(OC)c3)nn2)CC1 | -28.5
CCOc1ccc(S(=O)(=O)N(CC)CC)cc1NC(=O)CSCc1c(C)noc1C | -67.2
c1ccc2sc(NC3=NCN(CCN4CCOCC4)CN3)nc2c1 | 6.61
